# Laboratory results from publication PMC6212790.
# The list shows a part of the results. At the low end of the ranking, values are background and their order means little.
# Target: T1, GST-Rok-C97-191 (UniProt O34857)
# T1 sequence: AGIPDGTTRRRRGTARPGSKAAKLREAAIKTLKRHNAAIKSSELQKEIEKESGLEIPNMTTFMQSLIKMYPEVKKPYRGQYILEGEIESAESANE
# Experiment: protein binding microarray;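 also: rank score from −0.5 (least bound) to 0.5 (best bound)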
# Settings: Rok is a gene silencer of Bacillus subtilis; high values mean tight binding; most listed sequences are background and not binding sites; double strand, one strand shown
row,Sequence,binding signal
1,AGGCACAA,-0.0341 E-score
2,ACTGGGCT,-0.135 E-score
3,AATCCCAC,-0.164 E-score
4,CTTCACTA,0.1 E-score
5,AAGCTACG,0.0766 E-score
6,GCCTGCAC,-0.223 E-score
7,AACGGGAG,-0.133 E-score
8,CAACGTGC,0.00038 E-score
9,TTATTAAA,0.156 E-score
10,GTGTACTA,0.16 E-score
11,ACATACAG,0.139 E-score
12,ACGGAAGG,-0.162 E-score
13,CGCATTTC,-0.0947 E-score
14,CATAGCGC,-0.0698 E-score
15,ATTCAGCG,0.084 E-score
16,GGAACCCC,-0.194 E-score
17,CCAAAACA,0.0286 E-score
18,AGGATTCC,-0.206 E-score
19,TAGAGTCA,-0.0813 E-score
20,AGCGTATC,-0.051 E-score
21,GAGACTAA,-0.0529 E-score
22,GAATTGTC,-0.118 E-score
23,CCCTATTC,-0.188 E-score
24,CAATTTGA,-0.0536 E-score
25,GCACATGA,-0.0422 E-score

row,Sequence,binding signal
1,CAAGAACA,-0.000347 E-score
2,ATCGGACC,-0.111 E-score
3,ATGCCTAG,0.013 E-score
4,AACGTTCG,0.00179 E-score
5,GTAGCCAC,-0.0767 E-score
6,ACACCTAT,0.194 E-score
7,AGTCGTGG,-0.138 E-score
8,GCTACCAA,0.237 E-score
9,AAACACAC,0.217 E-score
10,ATCTGGGG,-0.124 E-score
11,ACTCGAGG,-0.0552 E-score
12,CGGCCACG,-0.323 E-score
13,AGATGCTG,0.0356 E-score
14,TCCGGCCA,-0.226 E-score
15,CGTCGTAC,-0.0353 E-score
16,AGGGAAAA,0.0795 E-score
17,TGAAAAAA,0.138 E-score
18,GAAGCATA,-0.0969 E-score
19,CAATTTGC,-0.0552 E-score
20,GAGTTTGC,0.136 E-score
21,CCCTGAAC,-0.348 E-score
22,CCCGCACG,-0.269 E-score
23,TACATGGA,0.19 E-score
24,CCGGTGAA,-0.243 E-score
25,ACCGCTCG,-0.0635 E-score

row,Sequence,binding signal
1,ACAGCCGT,-0.0887 E-score
2,AAATATTT,0.258 E-score
3,ACTCCGTA,0.0806 E-score
4,CCCACGCC,-0.245 E-score
5,ATTGCGTC,-0.121 E-score
6,AATATTCA,0.184 E-score
7,CGTTTACA,-0.175 E-score
8,AGGTGTCA,-0.135 E-score
9,CCATCAGA,-0.0159 E-score
10,GATGTTCA,-3.34e-05 E-score
11,GCCTTCAA,-0.179 E-score
12,GTCTATGA,-0.0759 E-score
13,AATCGTTA,0.0533 E-score
14,AGGTACGG,-0.0216 E-score
15,AATTAGCT,0.265 E-score
16,ATTGTGCC,0.109 E-score
17,AAATGCCT,-0.046 E-score
18,AAGACAGG,-0.0648 E-score
19,GTAGTCTA,0.198 E-score
20,ATTACACG,0.0847 E-score
21,GCGCCCGC,-0.329 E-score
22,CACACGAG,0.0493 E-score
23,ACTAGGCA,0.154 E-score
24,TGTCGAAA,0.129 E-score
25,AGCCTATA,0.119 E-score

row,Sequence,binding signal
1,ATGTTGAC,-0.0509 E-score
2,ATAATACA,0.242 E-score
3,AATATATT,0.417 E-score
4,CTTGCCCA,-0.13 E-score
5,ACGAGAAG,-0.21 E-score
6,AATTCATC,0.0705 E-score
7,GCCCTAAA,-0.14 E-score
8,TCGTATAA,0.215 E-score
9,AGTTGCAT,0.0854 E-score
10,AGCTAGTC,0.104 E-score
11,ATCGGGGA,-0.154 E-score
12,CGCAGAAC,-0.171 E-score
13,CTCGTTCC,-0.14 E-score
14,AGAATCAG,0.233 E-score
15,GGTAGGAA,0.247 E-score
16,ACAAAGTC,-0.118 E-score
17,GTAGTGTA,0.118 E-score
18,TAATAGAA,0.235 E-score
19,ACGGTGCT,-0.195 E-score
20,GCTGCTGA,-0.137 E-score
21,GCGATATA,0.282 E-score
22,CGGGCGAC,-0.28 E-score
23,CTGCATAA,0.156 E-score
24,ATTTGTGA,0.193 E-score
25,CACACGCG,-0.136 E-score

row,Sequence,binding signal
1,AGCGTTCA,-0.219 E-score
2,GCAACTTA,0.245 E-score
3,ATTACATA,0.224 E-score
4,AATCTACG,0.36 E-score
5,GCAAGAGA,-0.0837 E-score
6,ATACAGGC,-0.00913 E-score
7,CCTAACAG,-0.0844 E-score
8,CGGTGGCA,-0.127 E-score
9,CAAAAGGG,-0.177 E-score
10,AGCATAGG,0.182 E-score
11,GACGTTGC,-0.152 E-score
12,AACGAGCA,-0.0844 E-score
13,CCTGATCA,0.0241 E-score
14,GTATGTAA,0.152 E-score
15,AACAAAAG,0.0892 E-score
16,CAATTAGC,0.0885 E-score
17,TCGGGACA,-0.133 E-score
18,AACCCTCA,-0.0708 E-score
19,CAGCGGAA,0.0978 E-score
20,GACGGACC,-0.182 E-score
21,ATCATTGA,0.113 E-score
22,ACATTCAT,0.00809 E-score
23,TCATTAAA,0.0521 E-score
24,AGGGGTTG,-0.353 E-score
25,GCTCATAC,-0.0411 E-score

row,Sequence,binding signal
1,CGATTGTC,-0.15 E-score
2,CCGCACGA,-0.147 E-score
3,CATATTGG,-0.084 E-score
4,ATTCCGCG,0.14 E-score
5,AAGTATCT,0.297 E-score
6,TGCTAGAA,0.364 E-score
7,GTAGCCGA,0.0637 E-score
8,GGACACCC,-0.231 E-score
9,CTACAGAA,0.189 E-score
10,AATTATTG,0.204 E-score
11,GTATGTCA,0.0225 E-score
12,AGTCCGCA,0.0287 E-score
13,ATAAGATC,0.248 E-score
14,CGCTAAAA,0.0839 E-score
15,AACTTCCC,0.00325 E-score
16,ACCACAAG,-0.0254 E-score
17,AGTAGTTG,0.393 E-score
18,ATCCCTTA,0.0454 E-score
19,CTCGCCGA,-0.262 E-score
20,ACCAATTA,0.0161 E-score
21,CTATATAC,0.376 E-score
22,AACTTTGT,-0.00531 E-score
23,CACATGAA,0.141 E-score
24,GCGCTACA,0.142 E-score
25,CATACTCG,-0.0996 E-score

row,Sequence,binding signal
1,CACGACCC,-0.0829 E-score
2,ACTGGGTG,-0.153 E-score
3,GGCTGGAC,-0.111 E-score
4,CGAGATCA,-0.0124 E-score
5,AGCAGAGC,-0.0621 E-score
6,AACTCCTA,0.175 E-score
7,GGACAAAC,0.0466 E-score
8,AATTCGAA,0.202 E-score
9,CAGCCCAG,-0.136 E-score
10,GAAAAGCC,0.0409 E-score
11,AAACATAC,0.297 E-score
12,CATGAATG,-0.00652 E-score
13,ACATAGCA,0.0734 E-score
14,ATACTAAT,0.321 E-score
15,GAGCTCGC,-0.123 E-score
16,AACACCCC,-0.153 E-score
17,CGAACACA,-0.142 E-score
18,GTGGGTGA,0.0534 E-score
19,CGATAGCG,-0.126 E-score
20,ATCACCTC,-0.12 E-score
21,AAGCTAGC,0.254 E-score
22,CCCGGGGA,-0.298 E-score
